According to PubChem BioAssay AID1865 (National Center for Advancing Translational Sciences (NCATS), 2009):
Screen size: about 280,000 compounds; about 540 (0.19%) were called active. Inconclusive means that the source gave no clear call. Such entries were picked first, then a sample of the others. Calls come from the whole dose curve; as a rule, active = well fitted activation curve with a large enough effect; inconclusive = small, poorly fitted or top-dose-only effect; inactive = flat fitted curve, though single readings scatter. Potencies beside an inconclusive call are fits to weak or partial responses and may not hold up.

Experiment: Quantitative High-Throughput Screen for Regulators of Epigenetic Control; note: nearly all actives have a fitted effect of over 60% in size; for GFP activation: % of control where 0% means no effect
Conditions: murine LDR cells, GFP reporter derepression, 30 h; GFP activation: at 53.9 µM (top of the series)
In short: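 Reporter derepression read as number of fluorescent GFP-positive objects, 20-120 um in size, counted by laser-scanning cytometer. Mouse LDR line with an epigenetically silenced CMV-GFP locus; compound incubation 30 h, 37 C.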
Potency is the fitted concentration of half-maximal effect; tags give direction and shape of the fitted curve.

Row | SMILES | Potency | GFP activation
1 | COC(=O)CSc1nc(C)c(C(=O)Nc2ccccc2C)c(-c2ccc(Cl)cc2)c1C#N | inconclusive: 6.31 µM [activator, single point] | 
2 | CC(=O)NCCNc1nc(-c2ccc(N(C)C)cc2)nc2ccccc12 | inconclusive: 35.5 µM [activator, single point] | 
3 | COc1ccc(-c2cc(C(F)(F)F)nc(SCC(=O)Nc3ccc4c(c3)OCO4)n2)cc1 | inconclusive: 35.5 µM [activator, single point] | 
4 | O=C1Nc2ccccc2S/C1=C/Nc1cccc(Cl)c1 | inconclusive: 35.5 µM [activator, single point] | 
5 | CCOC(=O)CCc1c(C)c2ccc(OCc3ccc([N+](=O)[O-])cc3)cc2oc1=O |  | inactive: -1.94%
6 | CCOC(=O)Cc1csc(NC(=O)c2sc3nc4cc(C)ccc4cc3c2N)n1 | inconclusive: 31.6 µM [activator, single point] | 
7 | Cc1ccc2cc(CN(Cc3ccc(F)cc3)Cc3nnnn3C3CCCC3)c(=O)[nH]c2c1 |  | inactive: 0.0605%
8 | O=C(CSc1cccc[n+]1[O-])c1cc(Cl)ccc1Cl | inconclusive: 0.631 µM [activator, partial curve, poor fit] | 
9 | NC(=S)N/N=C/C=C/c1ccccc1 | inconclusive: 22.4 µM [activator, single point] | 
10 | Nc1nonc1C(=O)NC(c1ccccc1)c1ccccc1 |  | inactive: -0.98%
11 | CC(c1ccncn1)N(C)Cc1nc(-c2ccc(C(F)(F)F)cc2)no1 (stereo unspecified) |  | inactive: -2.3%
12 | CCCCCCCCCCCCCCCC(=O)OC[C@H](COP(=O)([O-])OCC[N+](C)(C)C)OC(=O)CCCCCCCCCCCCCCC |  | inactive: 0.321%
13 | CCOC(=O)c1cnc2ccc(C)cc2c1NCCO |  | inactive: 1.19%
14 | CC1CN(C2=Nc3cccc4cccc2c34)CC(C)O1 (stereo unspecified) | inconclusive: 5.62 µM [activator, single point] | 
15 | c1ccc(-c2nc(-c3cccc4ccccc34)c(Nc3ccc4ccccc4c3)o2)cc1 |  | inactive: 3.11%
16 | CC(=O)c1c(C)[nH]c(C(=O)OCC(=O)Nc2cc(S(=O)(=O)N3CCCC3)ccc2Cl)c1C | inconclusive: 35.5 µM [activator, single point] | 
17 | CCOc1ccc(NC(=O)Cn2cc(C(=O)c3ccc(CC)cc3)c(=O)c3cc(C)ccc32)cc1 | inconclusive: 35.5 µM [activator, single point] | 
18 | CCOCCCn1c(SCC(=O)Nc2ccc(C(C)C)cc2)nc2c(sc3ccccc32)c1=O | inconclusive: 31.6 µM [activator, single point] | 
19 | CCCN1C(=O)/C(=C/c2ccc(OCC(=O)OCC)cc2)NC1=S |  | inactive: 2.84%
20 | O=C(COc1ccc(Cl)cc1)OCc1cc(=O)n2nc(-c3cccs3)sc2n1 |  | inactive: 0%
21 | CC1CCCCC1NC(=O)/C(C#N)=C/c1ccccc1F (stereo unspecified) | inconclusive: 28.2 µM [activator, single point] | 
22 | C/C(CCC(=O)OC[C@H]1O[C@H](C#Cc2ccccc2)C=C[C@@H]1Oc1ccc(C)cc1)=N\OC[C@@H](O)[C@H]1O[C@@H]2OC(C)(C)O[C@@H]2[C@H]1O | inconclusive: 31.6 µM [activator, single point] | 
23 | CCCn1cc(S(=O)(=O)c2ccccc2)c(=O)c2cc(F)c(N3CCCCC3)cc21 |  | inactive: -1.23%
24 | O=C(N/N=C\c1c(O)ccc2ccccc12)c1ccc(Cn2cccn2)o1 | inconclusive: 31.6 µM [activator, single point] | 

Row | SMILES | Potency | GFP activation
25 | O=C(N/N=C/c1sc(=O)n(-c2ccccc2)c1Cl)c1ccncc1 | inconclusive: 31.6 µM [activator, single point] | 
26 | COc1cc(Cl)c(C)cc1NC(=O)Cn1ncc2c3ccccc3n(Cc3ccccc3)c2c1=O |  | inactive: 3.09%
27 | Cc1ccc(N=C2NC(=O)/C(=C/c3cccn3C)S2)cc1C |  | inactive: 10.7%
28 | c1ccc(Cc2nnc3sc(-c4cccnc4)nn23)cc1 |  | inactive: 0%
29 | CC1CCC(C(=O)O)NC1c1cccc(N2CCCC2=O)c1 (stereo unspecified) |  | inactive: 1.14% [at 10.1 µM]
30 | COc1cccc(NC(=O)c2cnc(SCC(=O)N3CCOCC3)n(C)c2=O)c1 | inconclusive: 35.5 µM [activator, single point] | 
31 | C=CCNC(=O)/C(C#N)=C/c1ccc(OS(=O)(=O)c2ccc(C)cc2)c(OC)c1 | inconclusive: 31.6 µM [activator, single point] | 
32 | NCC1OC(O[C@@H]2[C@H](O)[C@@H](OC3C(O)C(N)CC(N)C3OC3OC(CO)C(O)C(O)C3N)O[C@@H]2CO)C(N)C(O)C1O (stereo partly specified) |  | inactive: -0.167%
33 | CC(C)(C)C1CCC2(CC1)NC(=S)N(c1ccccc1)N2 (stereo unspecified) |  | inactive: 0%
34 | CCCc1ccc(/C=C2\C(=O)c3ccccc3C(O)=C2C(=O)OCC)cc1 | inconclusive: 31.6 µM [activator, single point] | 
35 | CC(C)(C)c1ccc(NC(=O)CSc2nnc(-c3n[nH]c4ccccc34)o2)cc1 | inconclusive: 35.5 µM [activator, single point] | 
36 | CSc1nnc(-c2ccccc2)o1 |  | inactive: -4.26%
37 | Cc1cc(S(=O)(=O)N2CCC(NC(=O)C34CC5CC(CC(C5)C3)C4)CC2)ccc1-n1cnnn1 | inconclusive: 10 µM [activator, partial curve, poor fit] | 
38 | COc1ccc(/C(C)=N/NC(=S)NCCc2ccccc2)cc1 | inconclusive: 31.6 µM [activator, single point] | 
39 | COc1ccc(NC(=O)c2ccc(COc3ccccc3)o2)cc1 | inconclusive: 25.1 µM [activator, single point] | 
40 | CC(=O)c1ccc(Nc2c3c(c(C#N)c4nc5ccccc5n24)CCC3)cc1 | inconclusive: 31.6 µM [activator, single point] | 
41 | O=C1C(C=NCCCN2CCOCC2)=C(O)c2ccccc21 |  | inactive: -1.6%
42 | Oc1ccc(CN2CCC(Cc3ccccc3)CC2)c2cccnc12 | inconclusive: 5.62 µM [activator, single point] | 
43 | Cc1ccc(-c2nn(-c3ccccc3)cc2C(=O)OCC(=O)Nc2ncc(Cl)cc2Cl)cc1 | inconclusive: 22.4 µM [activator, single point] | 
44 | COc1ccc(N2C3=C(CC4=C2CCCC4=O)C(=O)CCC3)cc1 |  | inactive: 8.33%
45 | Fc1cccc(NC(=S)NCCCN2CCOCC2)c1 |  | inactive: -0.943%
46 | CCOc1ccc(-c2cc(C(=O)N3CCN(c4cccc(C(F)(F)F)c4)CC3)c3ccccc3n2)cc1 |  | inactive: 4.84%
47 | CNC(=O)CSc1nnc(NC(=O)Nc2ccccc2)s1 | inconclusive: 0.398 µM [activator, full curve, poor fit] | 
48 | O=C(O)[C@@H](O)[C@@H](O)[C@@H](O)[C@@H](O)C(=O)O (tested in a mixture with another compound) |  | inactive: 4.11% [at 16.9 µM]

Row | SMILES | Potency | GFP activation
49 | CCN(C(=O)c1cc2c(=O)oc3ccccc3c2s1)c1cccc(C(F)(F)F)c1 | inconclusive: 35.5 µM [activator, single point] | 
50 | CC(C)CC(=O)Nc1nc2ccc(S(C)(=O)=O)cc2s1 |  | inactive: 4.6%
51 | O=C1N/C(=C/c2cccn2-c2ccccc2)C(=O)N1Cc1ccc(F)cc1 | active: 7.08 µM | 
52 | O=C(O)CSc1cc(NS(=O)(=O)c2cccc([N+](=O)[O-])c2)c2ccccc2c1O | inconclusive: 35.5 µM [activator, single point] | 
53 | COc1ccccc1NS(=O)(=O)c1ccc2oc(SCc3ccc(C#N)cc3)nc2c1 |  | inactive: -1.59%
54 | Cc1ccc(O)c(NC2=C(Cl)C(=O)N(Cc3ccccc3)C2=O)c1 | inconclusive: 35.5 µM [activator, single point] | 
55 | CCN(CC)S(=O)(=O)c1nnc(NC(=O)COc2ccccc2)s1 | inconclusive: 25.1 µM [activator, partial curve] | 
56 | O=c1c2ccccc2nc(/C=C/c2ccc([N+](=O)[O-])o2)n1CCCO | inconclusive: 3.16 µM [activator, partial curve] | 
57 | CCn1nc(C)c(NC(=O)/C=C/c2ccc(OC)c(COc3ccc(Cl)cc3Br)c2)c1C | inconclusive: 22.4 µM [activator, single point] | 
58 | Nc1nonc1-c1nc2ccccc2n1Cc1ccc(Br)cc1 | inconclusive: 6.31 µM [activator, single point] | 
59 | COc1ccc(-c2noc(-c3ccccc3Cl)n2)cc1OC |  | inactive: -9.52%
60 | O=C1NC(=S)N/C1=C\c1ccc(N2CCOCC2)cc1 |  | inactive: 4.69%
61 | O=C(C1CCC(CNc2c(N3CCCC3)c(=O)c2=O)CC1)N1CCc2ccccc21 (stereo unspecified) | inconclusive: 4.47 µM [activator, single point] | 
62 | Cc1cc(C)c2nc3nc(C)cc(C)c3c(N)c2c1 | inconclusive: 31.6 µM [activator, single point] | 
63 | CCOc1ccc(CC(=O)NNC(=S)NC2CCCCC2)cc1OCC |  | inactive: -1%
64 | COc1ccc(NC(=O)CN(C)S(=O)(=O)c2ccc(Cl)cc2)c([N+](=O)[O-])c1 | inconclusive: 31.6 µM [activator, single point] | 
65 | CCNC(=O)c1cccc(S(=O)(=O)N2CCCCCC2)c1 | inconclusive: 12.6 µM [activator, single point] | 
66 | N#C/C(=N\Nc1ccccc1Cl)C(=O)c1ccccc1 |  | inactive: 0%
67 | CC(C)Cn1c(SC(C)C(=O)Nc2ccc3c(c2)OCCO3)nc2ccccc2c1=O (stereo unspecified) |  | inactive: -2.97%
68 | COc1ccc(N=Cc2cc(Cc3ccccc3Cl)cc([N+](=O)[O-])c2O)cc1OC |  | inactive: -1.2%
69 | CCN(CC)c1ccc(NC(=O)Cn2c(C)c3cnn(-c4ccccc4)c(=O)c3c2C)c(C)c1 | inconclusive: 35.5 µM [activator, single point] | 
70 | Cc1cc(C)nc(N/N=C/c2ccccc2Cl)n1 | inconclusive: 0.562 µM [activator, single point] | 
71 | CCCC1O[C@@H]2C[C@H]3[C@@H]4CCC5=CC(=O)C=C[C@]5(C)[C@H]4[C@@H](O)C[C@]3(C)[C@]2(C(=O)CO)O1 (stereo partly specified) |  | inactive: 3.85%
